In PubChem BioAssay AID493208 (National Center for Advancing Translational Sciences (NCATS), 2011):
Among all 44,000 compounds or so, about 340 (0.77%) were called active. Inconclusive results (about 5%) are left out. Calls follow the shape of the dose curve; as a rule, active = well fitted inhibition curve with a large enough effect; inconclusive = small, poorly fitted or top-dose-only effect; inactive = flat fitted curve, though single readings scatter. Some of the results follow.

assay: Acumen qHTS Assay for Inhibitors of the mTORC1 Signaling Pathway in MEF (Tsc2-/-, p53-/-) Cells: Sytravon; settings: phospho-rpS6 immunofluorescence/PI, 24 h; series mostly up to 38.3 µM; activity change, negative = inhibition: at the top concentration;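 also: plate controls were DMSO for no effect and rapamycin for full effect; nearly all actives have a fitted effect of over 50% in size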
Summary of the method: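 Immunofluorescence of rpS6 phosphorylation in Tsc2-/-, p53-/- MEFs after 24 h compound exposure, normalized to propidium iodide signal. Activity is expressed as % positive cells, thresholded with 7.5 nM rapamycin.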

Activity change, negative = inhibition, inactive:
CCc1ccc(Nc2nn3c(=O)c4cc5c(cc4nc3s2)OCO5)cc1 -1.86%
O=C(Nc1cccc(Cl)c1Cl)c1cc(S(=O)(=O)N2CCC3(CC2)OCCO3)ccc1F 4.58%
COc1cc(OC)cc(C(=O)Nc2ccc(S(=O)(=O)N3CCCCC3c3cccnc3)cc2)c1 (configuration not stated) -8.3%
Cc1ccc(-n2nc3c(N4CCC(C(=O)N5CCC(C)CC5)CC4)nnc(C)c3c2C)cc1 -6.86%
CC(C)Cn1c(=O)c2sccc2n2c(CCCC(=O)NCC(C)c3ccccc3)nnc12 (configuration not stated) -0.482%
O=C(NCCN1CCN(c2ccccc2F)CC1)C1COc2ccccc2C1 (configuration not stated) -1.67%
O=C(CSc1oc(-c2ccccc2)nc1S(=O)(=O)c1ccc(Br)cc1)NC1CCCCC1 -8.55%
COc1ccc(OC)c(NC(=O)Cc2c(C(=O)O)[nH]c3ccc(Cl)cc23)c1 -5.75%
CCc1ccccc1NC(=O)Cc1ccc(-n2c(C)nc3cccnc32)cc1 -6.73%
Cc1ccc(C2=Nc3ccccc3N(CC(=O)NCc3ccc(Cl)cc3)C(=O)C2)cc1C -12.1%
COc1ccc(CNC(=O)c2ccc3c(c2)N(Cc2ccccc2F)C(=O)c2ccccc2S3=O)cc1 (configuration not stated) 2.33%
CCOc1nc(NC(=O)NS(=O)(=O)Oc2cccc(F)c2)nc(-c2ccccc2)n1 10.7%
CC(=O)Nc1nonc1-c1nnc(SCc2ccccc2C)n1C 0.351%
O=C(c1ccc(Cl)cc1)N1CCCCC1CCN1CCOCC1 (configuration not stated) -5.04%
Cc1ccc(C)c(N2CCN(C(=O)c3cc4c(=O)n(Cc5cccnc5)ccc4nc3C)CC2)c1 0%
Cc1cccc(CSc2nc3cccnc3n2Cc2ccc(C(=O)NCc3cccs3)cc2)c1 0.701%
Cc1ccc(NC(=O)c2cc3c(Cl)nc4ccc(C)cc4c3s2)c(Cl)c1 1.53%
COc1ccc(NC(=O)CSc2nc3ccccc3n2CC(=O)N2CCCC(C)C2)cc1 (configuration not stated) 0%
Cc1cc(C)n(-c2nc3cc(Cl)c(Cl)cc3nc2Nc2ccc(F)cc2C)n1 4.47%
CCn1c(=O)c2cc(C(=O)Nc3cc(C)c(Cl)cc3OC)sc2c2ccccc21 -1%
CC(=O)N(Cc1cccnc1)c1nc2c(C)cc(C)cc2s1 -0.355%
CCOc1ccccc1N1CC(c2nc3ccccc3n2CCOc2ccc(OC)cc2)CC1=O (configuration not stated) -11.5%
COc1ccc(CNC(=O)c2cc(-c3cccs3)nc3ccccc23)c(OC)c1 -0.0981%
CCOC(=O)c1sc(NC(=O)c2nc3ncccn3n2)c(C(=O)OC(C)C)c1C -5.66%
Cc1ccc(NS(=O)(=O)c2ccc3[nH]c4c(c3c2)CCCC4)c(C)c1 -0.34%
CC1CCc2c(sc3nnn(Cc4ccccc4)c(=O)c23)C1 (configuration not stated) -16.7%
Cc1ccc(-c2nc3ccccn3c2Nc2c(C)cccc2C)o1 14%
CCOc1ccc(NC(=O)Cn2cc(C(=O)c3ccccc3)c(=O)c3cc(OC)ccc32)cc1 1.45%
COC(=O)c1cc(NC(=O)CCc2c(C)nc3nc(C)nn3c2C)cc(C(=O)OC)c1 -0.176%
O=C(Cc1ccc(F)cc1)NCCc1csc2nc(-c3ccc(Cl)cc3)nn12 5.12%
CCCCn1c(SCc2ccccc2C#N)nc2c(sc3ccccc32)c1=O -0.841%
CC1=C(C(=O)Nc2ccccc2C)C(c2ccc[nH]2)n2ncnc2N1 (configuration not stated) 2.58%
Cc1ccc(-n2ncc3c(=O)n(Cc4cccc(C(F)(F)F)c4)cnc32)cc1C -6.16%
CCOC(=O)Cn1c(=O)cc(C)c2c(C)nn(-c3cccc(F)c3)c21 -9.25%
Cc1ccc2c(c1)-c1onc(C(=O)N(C)c3ccc(F)cc3)c1CO2 1.22%
Cc1cccc(CC(=O)Nc2cccc(-c3cn4cccnc4n3)c2)c1 -7.73%
CCc1ccc(S(=O)(=O)Nc2ccc3oc(C)c(C(=O)OCCOC)c3c2)cc1 -1.29%
Cc1cccc(NC(=O)c2cc3c(C)nn(-c4ccccc4)c3s2)c1 -14.1%
COc1ccc(CNC(=O)C2CCN(S(=O)(=O)Cc3ccccc3)CC2)cc1 -1.04%
O=C(NCc1ccc2c(c1)CCN2C(=O)c1ccncc1)c1cccc(F)c1 1.84%
CCOC(=O)c1[nH]c(C)c(C(=O)NCc2ccccc2Cl)c1C -6.76%
O=C(CCc1nnc2n(Cc3ccccc3Cl)c(=O)c3ccccc3n12)Nc1ccccc1 0.468%
CCCCN(c1ccccc1)S(=O)(=O)c1cc2c3c(c1)C(C)C(=O)N3CCC2 (configuration not stated) 1.06%
COc1ccc(NC(=O)c2ccc(-c3nc(CSc4ccccc4)c(C)o3)cc2)c(OC)c1 -0.314%
CCOC(=O)C1CCCN(S(=O)(=O)c2cc(Br)cc3c2N(C(=O)CC)CC3)C1 (configuration not stated) -2.43%
Cc1ccc(COC(=O)c2ccc(-c3nnn(Cc4ccc(C)cc4)n3)cc2)cc1 -1.64%
CCN(CCCNC(=O)CN1N=C(c2ccc(C)cc2)CCC1=O)c1ccccc1 -13.1%
O=c1cc(-c2ccccc2)nc(SCc2nc(-c3cccc(C(F)(F)F)c3)no2)[nH]1 0%
Cc1nn(-c2ccc(N3CCCCC3)nn2)c(C)c1CCC(=O)Nc1cccc(F)c1 -8.6%
Cc1ccn2c(=O)c(NC(=O)c3cccc([N+](=O)[O-])c3C)c(C)nc2c1 0%
CC(=O)C(Sc1nc(-c2ccccc2Cl)nc2c1c(=O)n(C)c(=O)n2C)C(=O)N(C)C (configuration not stated) 3.47%
CCCCN(CC)C(=O)Cn1cc2c(n1)-c1c(oc(C(=O)N3CCCC3)c1C)CC2 3.66%
COc1cccc(C(=O)c2cn(CC(=O)Nc3ccc4c(c3)OCCO4)c3nc(C)ccc3c2=O)c1 0%
Cc1ccc(NC(=O)NCc2c(-n3cccc3)sc3c2CCCC3)c(Cl)c1 0%
Cc1ccc(CNC(=O)CCCn2nc(C)n3c(cc4sccc43)c2=O)cc1 -3.26%
CCC(=O)N1CCc2cc(S(=O)(=O)NC(CC(C)C)C(=O)NCc3cccc(OC)c3)ccc21 (configuration not stated) 0.91%
Cc1cccc(C)c1NC(=O)c1cc2sccc2n1Cc1ccc(F)cc1 -12.9%
CCN(Cc1ccccc1)S(=O)(=O)c1ccc(F)c(C(=O)Nc2ccc(C(C)C)cc2)c1 -3.27%
COc1cc(NC(=O)C2CCN(S(=O)(=O)c3c(C)noc3/C=C/c3c(C)cc(C)cc3C)CC2)cc(OC)c1 -1.68%
COc1ccc(OC)c(CNc2ncc(-c3ccc(Cl)cc3)n2C)c1 -9.66%
CCOC(=O)c1cccc(NC(=O)NC2COc3ccccc3C2)c1 (configuration not stated) 3.1%
Cc1ccc(CNC(=O)c2cn(C)c3ccc(S(=O)(=O)N4CCC(C)CC4)cc3c2=O)cc1 -4.35%
O=C(NCCCc1ccccc1)c1ccc2c(c1)sc1nc(-c3ccc(F)cc3)cn12 -11.1%
Cc1ccccc1CN1C(=O)c2ccccc2Sc2ccc(C(=O)NCCCN3CCOCC3)cc21 -13.2%
CCOc1ccc(CC(=O)NCc2ccc3c(c2)CCN3C(=O)c2ccc(F)cc2)cc1OCC 2%
Cc1ccc(Sc2c(C)nn(-c3ccccc3)c2OC(=O)CC(C)C)cc1 -4.83%
CC(=O)c1ccc(S(=O)(=O)Nc2cccc(-c3ccc(N4CCCC4)nn3)c2)cc1 -0.403%
O=C(NCCc1ccc(Cl)cc1)c1ccc2c(c1)N(Cc1ccccc1)C(=O)CS2 9.5%
Cc1ccc(NC(=O)c2sc3nc[nH]c(=O)c3c2C)cc1C -6.56%
Cc1ccc(NC(=O)CN2C(=O)c3ccccc3Sc3ncccc32)c(C)c1 -11.7%
CCn1c(SCC(=O)Nc2cc(Cl)ccc2OC)nc2c([nH]c3ccccc32)c1=O 0.124%
CC(=O)c1ccc(NC(=O)c2nn(C)c3c2COc2ccccc2-3)cc1 0.45%
CCOc1ccccc1NC(=O)N1CCC(N2CCN(Cc3ccccc3)C(=O)C2=O)CC1 -0.696%
CCOC(=O)c1c(NC(=O)c2cc(-c3ccc(Br)cc3)on2)sc(C)c1C -0.0733%
CCc1cc2c(-c3ccccc3)cc(=O)oc2c2c1OCN(Cc1ccc(C)cc1)C2 -5.69%
CC(Oc1ccccc1F)C(=O)N1CCC(c2nc3ccccc3o2)CC1 (configuration not stated) -10.9%
O=c1c2ccccc2nc(-c2ccc(Cl)cc2)n1CCCCOc1ccc(F)cc1 -1.84%
COC(=O)c1ccc(NC(=O)CCOc2ccccc2)cc1 -1.41%
Cc1ccc(Cn2c(Cc3ccccc3)nc3ccccc32)cc1 1.72%
CCOc1ccc(CN2C(=O)c3ccccc3Sc3ccc(C(=O)NC4CCC(C)CC4)cc32)cc1 (configuration not stated) 5.53%
CCOC(=O)c1ccccc1NC(=O)CCc1c(C)nc2c(c1C)c(=O)n(C)c(=O)n2C 0.565%
Cc1ccc(N(CC(=O)NCc2ccc(OC(C)C)cc2)S(=O)(=O)N(C)C)cc1 -1.11%
COc1ccc(CNC(=O)CCS(=O)(=O)c2cc3c4c(c2)CCN4C(=O)CC3)cc1 3.16%
COC(=O)c1ccc(NC(=O)c2cc3cc4ccc(OC)c(Cl)c4nc3s2)cc1 -10.1%
Cn1cc(C(=O)N2CCN(c3ccccc3)CC2)c(=O)c2cc(S(=O)(=O)N3CCCC3)ccc21 0.634%
O=C(NC1CC(=O)N(c2ccc(F)cc2)C1)C(c1ccccc1)c1ccccc1 (configuration not stated) -1.67%
COc1ccc(-c2noc(CSc3nnc(-c4ccncc4)n3-c3ccc(OC)cc3)n2)cc1 -3.01%
Cc1cccc(NC(=O)Cn2c(=O)oc3cc(S(=O)(=O)N4CCCCCC4)ccc32)c1 1.14%
COCCNC(=O)c1ccc(NC(=O)N2CCCCc3ccccc32)cc1 -1.85%
CCOc1ccc(CNC(=O)CN2C(=O)CSc3c2c(C)nn3-c2ccccc2)cc1 0.455%
O=C(Nc1c(O)c2ccccc2oc1=O)c1ccccc1Cl 1.14%
Cc1ccc(CSc2nc3cccnc3n2Cc2nc(-c3ccccc3F)oc2C)cc1 -23.7%
COc1ccc(NC(=O)C(=O)NCCc2csc3nc(-c4ccccc4C)nn23)cc1 -0.185%
CCOc1ccc(-n2nc3ccc(NC(=O)COc4ccccc4C)cc3n2)cc1 -11.6%
COc1ccc(S(=O)(=O)N(CCc2ccccc2)CC(=O)NCc2ccc(C)cc2)cc1 11.6%
COC(=O)c1ccccc1NC(=O)CSc1c2c(nc3ccc(Cl)cc13)CCCC2 -0.141%
Cc1cc(C)c(S(=O)(=O)Nc2ccc(-c3ccc(N4CCCCC4)nn3)cc2)cc1C 2.02%
